We go through 16 targets from the supplement of paper PMC12067093, “Discovery and optimisation of a covalent ligand for TRIM25 and its application to targeted protein ubiquitination” (Chemical Science, 2025).

Of roughly 21,000 targets only a part is listed; those with the largest changes were picked by preference.
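Note: competitive chemoproteomic profiling in live THP-1 cells with an iodoacetamide desthiobiotin (IA-DTB) probe, comparing probe-labelled peptide intensities in compound-treated cells against DMSO-treated controls.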

Chain of UniProt Q8N4N3 (Q8N4N3 whole entry, looked up): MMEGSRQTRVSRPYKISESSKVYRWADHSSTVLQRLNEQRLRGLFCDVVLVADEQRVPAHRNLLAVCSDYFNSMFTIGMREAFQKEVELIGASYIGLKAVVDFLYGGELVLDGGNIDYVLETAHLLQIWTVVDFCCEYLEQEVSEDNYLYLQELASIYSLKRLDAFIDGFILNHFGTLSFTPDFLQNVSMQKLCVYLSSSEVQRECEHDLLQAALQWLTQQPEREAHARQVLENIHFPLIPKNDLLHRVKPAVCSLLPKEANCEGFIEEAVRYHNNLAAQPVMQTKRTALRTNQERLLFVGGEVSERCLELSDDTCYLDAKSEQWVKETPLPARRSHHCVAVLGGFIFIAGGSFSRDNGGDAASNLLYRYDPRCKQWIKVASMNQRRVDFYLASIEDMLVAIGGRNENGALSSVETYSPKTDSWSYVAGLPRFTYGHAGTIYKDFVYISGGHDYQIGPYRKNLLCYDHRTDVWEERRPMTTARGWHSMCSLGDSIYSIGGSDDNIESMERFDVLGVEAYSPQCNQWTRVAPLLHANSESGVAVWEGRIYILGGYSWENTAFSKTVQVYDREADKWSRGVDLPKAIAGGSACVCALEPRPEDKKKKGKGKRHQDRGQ
Chain of UniProt Q9NVH2 (Q9NVH2 whole entry, looked up): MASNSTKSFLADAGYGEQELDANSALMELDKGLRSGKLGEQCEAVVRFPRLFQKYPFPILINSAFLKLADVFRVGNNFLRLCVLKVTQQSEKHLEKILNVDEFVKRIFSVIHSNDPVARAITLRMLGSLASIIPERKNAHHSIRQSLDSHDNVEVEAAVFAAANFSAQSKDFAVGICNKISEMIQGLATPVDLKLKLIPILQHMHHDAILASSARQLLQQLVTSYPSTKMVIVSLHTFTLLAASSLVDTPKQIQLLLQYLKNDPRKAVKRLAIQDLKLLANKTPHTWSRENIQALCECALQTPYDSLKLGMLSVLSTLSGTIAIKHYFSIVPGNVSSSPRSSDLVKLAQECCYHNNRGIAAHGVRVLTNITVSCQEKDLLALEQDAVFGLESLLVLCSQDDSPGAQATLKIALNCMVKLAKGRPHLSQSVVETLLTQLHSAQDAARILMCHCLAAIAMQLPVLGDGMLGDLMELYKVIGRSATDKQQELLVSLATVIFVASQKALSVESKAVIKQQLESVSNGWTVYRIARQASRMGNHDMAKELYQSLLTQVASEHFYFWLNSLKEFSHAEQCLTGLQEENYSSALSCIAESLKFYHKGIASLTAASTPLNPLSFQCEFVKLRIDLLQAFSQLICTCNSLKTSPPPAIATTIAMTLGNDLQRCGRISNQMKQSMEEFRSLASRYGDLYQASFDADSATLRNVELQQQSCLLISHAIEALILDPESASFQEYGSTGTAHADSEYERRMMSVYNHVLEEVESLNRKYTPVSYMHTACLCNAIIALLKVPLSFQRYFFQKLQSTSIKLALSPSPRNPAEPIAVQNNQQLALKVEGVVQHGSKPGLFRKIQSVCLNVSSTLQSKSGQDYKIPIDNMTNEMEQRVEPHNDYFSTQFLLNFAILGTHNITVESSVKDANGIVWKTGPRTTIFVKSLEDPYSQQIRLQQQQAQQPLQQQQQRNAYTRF
Chain of UniProt Q14643 (Q14643 whole entry, looked up): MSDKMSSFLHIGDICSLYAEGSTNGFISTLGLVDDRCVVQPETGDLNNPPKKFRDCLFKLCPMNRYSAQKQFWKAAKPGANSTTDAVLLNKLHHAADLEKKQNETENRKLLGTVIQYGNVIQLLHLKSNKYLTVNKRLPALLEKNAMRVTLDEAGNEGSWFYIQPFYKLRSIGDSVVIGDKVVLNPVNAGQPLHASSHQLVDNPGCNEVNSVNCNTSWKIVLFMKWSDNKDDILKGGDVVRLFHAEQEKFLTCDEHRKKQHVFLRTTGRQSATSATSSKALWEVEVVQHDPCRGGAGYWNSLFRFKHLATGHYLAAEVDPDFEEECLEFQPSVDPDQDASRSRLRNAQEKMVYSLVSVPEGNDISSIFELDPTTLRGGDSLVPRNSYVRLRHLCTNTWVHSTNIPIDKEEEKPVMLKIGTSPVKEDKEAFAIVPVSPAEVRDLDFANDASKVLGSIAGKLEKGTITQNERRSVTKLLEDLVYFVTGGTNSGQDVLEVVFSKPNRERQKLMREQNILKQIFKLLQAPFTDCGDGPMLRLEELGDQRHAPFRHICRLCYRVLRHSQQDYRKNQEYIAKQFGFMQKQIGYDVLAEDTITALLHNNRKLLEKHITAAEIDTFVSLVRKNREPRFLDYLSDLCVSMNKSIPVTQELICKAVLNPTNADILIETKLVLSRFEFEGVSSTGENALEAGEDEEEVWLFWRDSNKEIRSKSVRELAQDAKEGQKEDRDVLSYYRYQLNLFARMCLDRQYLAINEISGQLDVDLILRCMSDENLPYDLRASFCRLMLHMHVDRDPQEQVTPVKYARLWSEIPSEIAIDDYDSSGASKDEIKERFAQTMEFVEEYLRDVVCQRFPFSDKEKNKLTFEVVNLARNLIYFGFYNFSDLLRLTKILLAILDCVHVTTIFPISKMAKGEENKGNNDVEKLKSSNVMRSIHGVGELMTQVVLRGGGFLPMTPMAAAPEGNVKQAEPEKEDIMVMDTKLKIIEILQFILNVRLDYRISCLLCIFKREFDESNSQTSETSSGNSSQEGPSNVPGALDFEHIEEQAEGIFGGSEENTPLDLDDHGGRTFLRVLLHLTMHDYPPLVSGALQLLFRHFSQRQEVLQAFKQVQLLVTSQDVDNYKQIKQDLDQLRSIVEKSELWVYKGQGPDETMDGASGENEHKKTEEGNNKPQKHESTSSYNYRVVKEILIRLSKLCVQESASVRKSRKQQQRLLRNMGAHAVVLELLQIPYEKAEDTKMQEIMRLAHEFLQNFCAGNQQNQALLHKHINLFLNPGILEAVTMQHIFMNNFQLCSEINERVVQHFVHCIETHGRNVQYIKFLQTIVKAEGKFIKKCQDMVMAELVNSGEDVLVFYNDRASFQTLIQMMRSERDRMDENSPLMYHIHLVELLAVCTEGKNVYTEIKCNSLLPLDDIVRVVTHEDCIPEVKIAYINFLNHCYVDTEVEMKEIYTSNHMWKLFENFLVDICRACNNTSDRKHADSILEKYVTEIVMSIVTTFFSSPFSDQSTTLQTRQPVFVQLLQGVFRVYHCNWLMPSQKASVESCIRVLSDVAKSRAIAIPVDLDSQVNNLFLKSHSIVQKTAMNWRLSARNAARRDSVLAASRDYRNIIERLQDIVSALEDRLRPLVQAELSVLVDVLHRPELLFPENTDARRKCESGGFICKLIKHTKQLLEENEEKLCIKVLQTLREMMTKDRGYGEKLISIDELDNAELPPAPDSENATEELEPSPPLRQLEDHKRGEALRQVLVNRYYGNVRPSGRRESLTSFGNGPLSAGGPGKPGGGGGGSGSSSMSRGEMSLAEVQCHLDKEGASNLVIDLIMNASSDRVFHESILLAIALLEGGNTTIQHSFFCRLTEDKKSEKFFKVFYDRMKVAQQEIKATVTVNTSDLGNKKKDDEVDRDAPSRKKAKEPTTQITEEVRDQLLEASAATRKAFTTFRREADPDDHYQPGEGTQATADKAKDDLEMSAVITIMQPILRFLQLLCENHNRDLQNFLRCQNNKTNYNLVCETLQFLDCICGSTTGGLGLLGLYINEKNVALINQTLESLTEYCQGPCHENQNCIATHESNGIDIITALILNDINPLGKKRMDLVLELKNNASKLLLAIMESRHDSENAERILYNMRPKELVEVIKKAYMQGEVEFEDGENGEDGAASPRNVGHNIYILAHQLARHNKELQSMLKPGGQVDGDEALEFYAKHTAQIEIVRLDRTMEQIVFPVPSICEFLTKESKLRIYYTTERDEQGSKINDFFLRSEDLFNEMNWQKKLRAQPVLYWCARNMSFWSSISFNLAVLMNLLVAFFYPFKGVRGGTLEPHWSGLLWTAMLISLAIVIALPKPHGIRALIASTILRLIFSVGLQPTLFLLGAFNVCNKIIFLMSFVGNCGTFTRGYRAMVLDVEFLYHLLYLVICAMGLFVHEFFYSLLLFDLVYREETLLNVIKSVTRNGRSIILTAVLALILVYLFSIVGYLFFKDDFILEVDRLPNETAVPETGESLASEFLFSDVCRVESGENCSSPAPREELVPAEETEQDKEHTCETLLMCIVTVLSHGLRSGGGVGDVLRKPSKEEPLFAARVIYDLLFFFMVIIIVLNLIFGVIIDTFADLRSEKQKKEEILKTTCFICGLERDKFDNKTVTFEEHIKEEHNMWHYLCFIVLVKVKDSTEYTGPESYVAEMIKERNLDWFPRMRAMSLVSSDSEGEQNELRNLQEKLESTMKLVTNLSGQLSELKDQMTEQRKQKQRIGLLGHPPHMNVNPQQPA
Chain of UniProt P13796 (P13796 whole entry, looked up): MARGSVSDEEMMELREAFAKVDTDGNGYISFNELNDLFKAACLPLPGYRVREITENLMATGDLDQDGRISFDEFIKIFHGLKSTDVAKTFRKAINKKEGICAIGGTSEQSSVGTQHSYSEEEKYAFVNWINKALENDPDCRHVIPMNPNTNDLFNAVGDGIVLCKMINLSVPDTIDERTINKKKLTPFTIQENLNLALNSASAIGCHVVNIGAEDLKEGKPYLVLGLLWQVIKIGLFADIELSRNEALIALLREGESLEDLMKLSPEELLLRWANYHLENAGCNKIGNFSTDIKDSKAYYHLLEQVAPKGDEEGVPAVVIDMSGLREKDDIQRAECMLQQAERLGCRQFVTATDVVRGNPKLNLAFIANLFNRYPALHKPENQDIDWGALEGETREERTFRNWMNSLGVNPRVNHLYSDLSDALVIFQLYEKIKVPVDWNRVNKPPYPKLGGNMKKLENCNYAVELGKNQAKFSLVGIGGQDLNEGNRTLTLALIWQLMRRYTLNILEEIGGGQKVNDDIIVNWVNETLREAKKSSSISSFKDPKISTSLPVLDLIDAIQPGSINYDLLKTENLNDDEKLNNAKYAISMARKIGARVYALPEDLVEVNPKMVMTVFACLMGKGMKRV

Compound in this assay: CC1Cc2ccccc2N1C(=O)C1CCCN(C1)C(=O)CCl (mixture of isomers) [TRIM25 ligand 11 (diastereomer mixture)]
Description: probe-labelled cysteine peptide fold change vs DMSO (competition) (log2 fold change); higher = less target engagement (more negative = stronger competition). Particulars: 10 µM; THP-1; incubation time: 4 h.
With “KIF14_Q15058_850_YKPNSSHDIQLSGVLIADDHCTIK (UniProt Q15058)”, the “probe-labelled cysteine peptide fold change” value was 0.209.
In the case of “INTS7_Q9NVH2_618_GIASLTAASTPLNPLSFQCEFVK (UniProt Q9NVH2)” it was 0.23; in that of “IRAK3_Q9Y616_572_VNIDPSSEAPGHSCR (UniProt Q9Y616)”, -0.134; in that of “IPO4_Q8TEX9_42_APAALPALCDLLASAADPQIR (UniProt Q8TEX9)”, -0.024.
Regarding “KEAP1_Q14145_368_SGLAGCVVGGLLYAVGGR (UniProt Q14145)”, the “probe-labelled cysteine peptide fold change” value was -0.0944.
In the case of “LCP1_P13796_336_DDIQRAECMLQQAER (UniProt P13796)” it was -0.722; in that of “LMAN1_P49257_190_NNPAIVIIGNNGQIHYDHQNDGASQALASCQR (UniProt P49257)”, 0.0166.
The value for “KIF5B_P33176_632_ELAACQLR (UniProt P33176)” was -0.102; that for “HUWE1_Q7Z6Z7_1832_HIIEDPCTLR (UniProt Q7Z6Z7)” was -0.0176; that for “KLHL36_Q8N4N3_465_NLLCYDHR (UniProt Q8N4N3)” was -0.0729.
On to “LRPPRC_P42704_930_CVANNQVETLEK (UniProt P42704)”, for which the “probe-labelled cysteine peptide fold change” value was found to be 0.0147.
“LRRFIP1_Q32MZ4_750_CEMSEHPSQTVR (UniProt Q32MZ4)”: the “probe-labelled cysteine peptide fold change” value was -0.0228.
The value for “ITPR1_Q14643_638_FLDYLSDLCVSMNK (UniProt Q14643)” was 0.0134; that for “ITGA4_P13612_183_IAPCYQDYVK (UniProt P13612)” was 0.0632.
The value for “IRF8_Q02556_410_MFPDICASHQR (UniProt Q02556)” was -0.0684; that for “KIF15_Q9NS87_949_CEQQMAK (UniProt Q9NS87)” was -0.0346.
